# Test results taken from PubChem BioAssay (NCATS).
# Inconclusive results, whose numbers are uncertain, are shown with a selection of clear calls. For some assays here: Potencies of inconclusive entries are doubtful fits and often do not repeat. Calls of active or inactive are those of the source. Calls follow the shape of the dose curve; as a rule, active = well fitted curve in the direction sought with a large enough effect; inconclusive = small, poorly fitted or top-dose-only effect, or another doubt; inactive = no such curve, though single readings can be large; an effect the other way counts as inactive or inconclusive.
# Legend:
# [1] = system: MKL-1; assay: qHTS assay to identify novel small-molecules to repurpose for Merkel cell carcinoma treatment (AID 1296009); conditions: MCC and control cell lines, CellTiter-Glo viability, 72 h; activity change, negative = cytotoxicity: at 46 µM (top of the series) unless noted; also: nearly all actives have a fitted effect of over 60% in size; as to activity change, negative = cytotoxicity: % is scaled to controls: 0 for no effect and ±100 for the full control effect
# How it was run: (§1)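 Cells were incubated with compound for 72 hr at 37 degree celsius before CellTiter-Glo addition. Luminescence was normalized with no-cell wells as full cytotoxicity and DMSO as baseline.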
# [2] = system: MKL-2; assay: as above; conditions: MCC and control cell lines, CellTiter-Glo viability, 72 h; series mostly up to 46 µM
# How it was run: as §1
# [3] = system: UISO; assay: as above; conditions: MCC and control cell lines, CellTiter-Glo viability, 72 h; activity change, negative = cytotoxicity: at 46 µM (top of the series) unless noted
# How it was run: as §1
# [4] = system: C33A; assay: Primary qHTS to identify gynecologic anti-cancer compounds using libraries of approved drugs and bioactive compounds (AID 1345084); conditions: Gynecologic cancer cell panel viability, ATPlite luminescence, 48 h; series mostly up to 57.5 µM; also: nearly all actives have a fitted effect of over 55% in size; as to activity change, negative = cytotoxicity: % is scaled to controls: 0 for no effect and ±100 for the full control effect
# How it was run: (§2)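 In this quantitative HTS, cell killing is estimated from loss of ATP-dependent luciferase light. Cells see five compound concentrations over a 48 h exposure.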
# [5] = system: CAOV3; assay: as above; conditions: Gynecologic cancer cell panel viability, ATPlite luminescence, 48 h; series mostly up to 57.5 µM
# How it was run: as §2
# [6] = system: CASKI; assay: as above; conditions: Gynecologic cancer cell panel viability, ATPlite luminescence, 48 h; series mostly up to 57.5 µM
# How it was run: as §2
# [7] = system: Es-2; assay: as above; conditions: Gynecologic cancer cell panel viability, ATPlite luminescence, 48 h; series mostly up to 57.5 µM
# How it was run: as §2
# [8] = system: HeLa; assay: as above; conditions: Gynecologic cancer cell panel viability, ATPlite luminescence, 48 h; series mostly up to 57.5 µM
# How it was run: as §2
# [9] = system: Hek293T; assay: as above; conditions: Gynecologic cancer cell panel viability, ATPlite luminescence, 48 h, control line for the selectivity index; series mostly up to 57.5 µM
# How it was run: as §2
# [10] = system: JEG-3; assay: as above; conditions: Gynecologic cancer cell panel viability, ATPlite luminescence, 48 h; series mostly up to 57.5 µM
# How it was run: as §2
# [11] = system: OV90; assay: as above; conditions: Gynecologic cancer cell panel viability, ATPlite luminescence, 48 h; series mostly up to 57.5 µM
# How it was run: as §2
# [12] = system: SC27B; assay: qHTS profiling for inhibitors of Plasmodium falciparum proliferation (AID 504749); also: nearly all actives have a fitted effect of over 60% in size; conditions: P. falciparum in erythrocytes, SYBR Green DNA, 72 h; series mostly up to 28.7 µM
# How it was run: (§3)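 Readout was DNA-dye fluorescence from lysed cultures, ex 485/em 535 nm. Parasitized red cells had grown 72 h with compound; data scaled between 0.29 uM artemisinin and DMSO wells and corrected using vehicle-only plates.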
# [13] = system: TAB109; assay: as above; conditions: P. falciparum in erythrocytes, SYBR Green DNA, 72 h; series mostly up to 28.7 µM
# How it was run: as §3
# [14] = system: TAB165; assay: as above; conditions: P. falciparum in erythrocytes, SYBR Green DNA, 72 h; series mostly up to 28.7 µM
# How it was run: as §3
# [15] = system: WaGa; assay: qHTS assay to identify novel small-molecules to repurpose for Merkel cell carcinoma treatment (AID 1296009); conditions: MCC and control cell lines, CellTiter-Glo viability, 72 h; series mostly up to 46 µM; also: nearly all actives have a fitted effect of over 60% in size; as to activity change, negative = cytotoxicity: % is scaled to controls: 0 for no effect and ±100 for the full control effect
# How it was run: as §1
# [16] = system: TAB113; assay: qHTS profiling for inhibitors of Plasmodium falciparum proliferation (AID 504749); also: nearly all actives have a fitted effect of over 60% in size; conditions: P. falciparum in erythrocytes, SYBR Green DNA, 72 h; series mostly up to 28.7 µM
# How it was run: as §3
# [17] = system: W2; assay: as above; conditions: P. falciparum in erythrocytes, SYBR Green DNA, 72 h; series mostly up to 28.7 µM
# How it was run: as §3
# Potency is read from the fitted curve at half-maximal effect; tags tell the direction and shape of the fitted curve.
smiles,measurement,setting,value
COc1ccc2c3c1O[C@H]1[C@@H](O)C=C[C@H]4[C@@H](C2)N(C)CC[C@@]341,Potency,[1],active: 10.7 µM
same,Potency,[2],active: 2.12 µM
same,Potency,[3],active: 15 µM
same,Potency,[4],"inconclusive: 44.7 µM [cytotoxic, single point]"
same,Potency,[5],"inconclusive: 70.8 µM [cytotoxic, single point]"
same,Potency,[6],active: 31.6 µM
same,Potency,[7],"inconclusive: 63.1 µM [cytotoxic, single point]"
same,Potency,[8],"inconclusive: 63.1 µM [cytotoxic, single point]"
same,Potency,[9],"inconclusive: 31.6 µM [cytotoxic, partial curve]"
same,Potency,[10],"inconclusive: 63.1 µM [cytotoxic, single point]"
same,Potency,[11],"inconclusive: 70.8 µM [cytotoxic, single point]"
COP(=S)(OC)SCN1C(=O)c2ccccc2C1=O,Potency,[1],"inconclusive: 18.8 µM [inhibitor, partial curve]"
same,Potency,[3],"inconclusive: 8.41 µM [inhibitor, partial curve, poor fit]"
same,Potency,[8],inactive
C[C@]12CC[C@H]3[C@@H](CCC4=CC(=O)CC[C@@H]43)[C@@H]1CC[C@@H]2OC(=O)CCc1ccco1,Potency,[1],"inconclusive: 21.1 µM [inhibitor, single point]"
same,Potency,[2],"inconclusive: 29.9 µM [inhibitor, single point]"
same,Potency,[3],"inconclusive: 10.6 µM [inhibitor, partial curve, poor fit]"
same,Potency,[8],active: 3.16 µM
COc1cc(C[C@@H](C)N)c(OC)cc1Br,Potency,[1],inactive
same,Potency,[2],inactive
same,Potency,[3],inactive
same,Potency,[6],"inconclusive: 100 µM [cytotoxic, single point]"
same,Potency,[11],"inconclusive: 50.1 µM [cytotoxic, single point]"
O=C(CCCN1CCC(n2c(=O)[nH]c3ccccc32)CC1)c1ccc(F)cc1,Potency,[12],active: 2 µM
same,Potency,[13],active: 1 µM
same,Potency,[14],active: 1 µM
same,Potency,[1],inactive
same,Potency,[15],inactive
same,Potency,[6],"inconclusive: 3.55 µM [cytotoxic, single point]"
same,Potency,[7],inactive
COC1CC(=C(c2cccs2)c2cccs2)C[N+](C)(C)C1 (centres undefined),Potency,[12],"inconclusive: 15.8 µM [inhibitor, single point]"
same,Potency,[16],"inconclusive: 14.1 µM [inhibitor, single point]"
same,Potency,[17],"inconclusive: 13.5 µM [inhibitor, single point]"
same,Potency,[1],active: 21.1 µM
same,Potency,[2],active: 7.5 µM
same,Potency,[6],"inconclusive: 39.8 µM [cytotoxic, single point]"
same,Potency,[8],"inconclusive: 12.6 µM [cytotoxic, partial curve]"
CC[C@H]1C[C@@H]2C[C@H]3c4[nH]c5ccc(OC)cc5c4CCN(C2)[C@@H]13,Potency,[1],"inconclusive: 47.6 µM [inhibitor, partial curve]"
same,Potency,[2],"inconclusive: 67.2 µM [inhibitor, single point]"
same,Potency,[3],"inconclusive: 67.2 µM [inhibitor, single point]"
NCC(CC(=O)O)c1ccc(Cl)cc1 (centres undefined),"activity change, negative = cytotoxicity",[1],inactive: -6.57% [at 0.597 µM]
same,"activity change, negative = cytotoxicity",[15],inactive: -6.81% [at 0.597 µM]
same,"activity change, negative = cytotoxicity",[9],inactive: -3.58% [at 0.462 µM]
Cn1cc(C2=C(c3cn(C4CCN(Cc5ccccn5)CC4)c4ccccc34)C(=O)NC2=O)c2ccccc21,Potency,[1],"inconclusive: 33.2 µM [inhibitor, single point]"
same,Potency,[2],"inconclusive: 33.2 µM [inhibitor, partial curve, poor fit]"
same,Potency,[15],"inconclusive: 13.2 µM [inhibitor, partial curve]"
same,Potency,[11],inactive
COc1ccc(C(=O)c2c(C)n(CCN3CCOCC3)c3cc(I)ccc23)cc1,Potency,[1],"inconclusive: 29.6 µM [inhibitor, partial curve, poor fit]"
same,Potency,[3],"inconclusive: 29.6 µM [inhibitor, single point]"
ClCc1cccc(Cl)c1,Potency,[1],inactive
same,Potency,[5],inactive
CC1=NN=C(c2ccc(N)cc2)c2cc3c(cc2C1)OCO3,Potency,[2],inactive
CC(C(=O)c1ccccc1)N(C)C (centres undefined),Potency,[1],inactive
same,Potency,[4],"inconclusive: 39.8 µM [cytotoxic, single point]"
same,Potency,[5],inactive
same,Potency,[6],inactive
same,Potency,[9],"inconclusive: 22.4 µM [rising, partial curve, poor fit]"
CN(C)C(=O)Oc1cc(OC(=O)N(C)C)cc(C(O)CNC(C)(C)C)c1 (centres undefined),Potency,[2],inactive
CC(=O)N(C)c1cccc(-c2ccnc3c(C(=O)c4cccs4)cnn23)c1,Potency,[2],inactive
